According to US20140030341A1, “POLYMERS AND METHODS FOR THE TREATMENT OF PAIN” (RUTGERS, THE STATE UNIVERSITY OF NEW JERSEY, priority 2011, published 2014):

System: Adult male C57Bl/6J mice
Conditions: for time point by which analgesic effect was absent / diminished: i.p., free morphine 10 mg/kg, 3 at 50 mg/kg

SMILES | time point by which analgesic effect was absent / diminished | time of peak analgesia post-administration (free morphine 10 mg/kg i.p.)
CN1CC[C@]23c4c5ccc(OC(=O)CCCC(=O)O)c4O[C@H]2[C@@H](OC(=O)CCCC(=O)O)C=C[C@H]3[C@H]1C5 [Diacid 3] | ≤ 8 h | 
CN1CC[C@]23c4c5ccc(O)c4O[C@H]2[C@@H](O)C=C[C@H]3[C@H]1C5 [morphine] | ≤ 4 h | 30 min
